Reference: PubChem BioAssay AID2100 (National Center for Advancing Translational Sciences (NCATS), 2009)
About 1,200 (0.4%) of roughly 300,000 compounds were called active. Inconclusive results, whose numbers are uncertain, are shown with a selection of clear calls. The call rests on the fitted dose curve; in most records, active means well fitted inhibition curve with a large enough effect; inconclusive means small, poorly fitted or top-dose-only effect, or another doubt; inactive means no such curve, though single readings can be large or run the other way. Where the call is inconclusive, the potency comes from a doubtful curve fit.

Biological target: Lysosomal alpha-glucosidase (Homo sapiens) (UniProt P10253)
Assay: qHTS Assay for Inhibitors and Activators of Human alpha-Glucosidase Cleavage of Glycogen;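 on activity change, negative = inhibition: 0% = full enzyme reaction and -100% = no-enzyme basal signal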
Conditions: recombinant GAA, glycogen substrate, Amplex Red glucose oxidase fluorescence; activity change, negative = inhibition: at 76.4 µM (top of the series) unless noted
Summary of the method: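 Recombinant human enzyme (4 nM); glycogen substrate; 37 C, 40 min, pH 5.0. Readout: coupled glucose oxidase/Amplex Red fluorescence.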
Potency means the concentration at half of the fitted maximal effect.

Question: `CCN1CCN(C(=S)Nc2ccc3nc(N4CCN(CC)CC4)cc(C)c3c2)CC1` was tested. Which Potency did it give?
Answer: inconclusive: 22.2 µM [inhibitor, partial curve]

Question: With `Cc1c(Cl)cccc1NC(=O)CSc1ccc(-c2ccccn2)nn1` as the molecule, how does the Potency read?
Answer: inconclusive: 39.8 µM [inhibitor, partial curve]

Question: Which Potency does the source give for `N#Cc1ccc(OCC(=O)Nc2ccncc2)cc1` here?
Answer: inconclusive: 11.2 µM [inhibitor, single point]

Question: `Cc1cc(C)cc(N2CCn3c2nc2c3c(=O)n(C/C=C/c3ccccc3)c(=O)n2C)c1` was tested. Which Potency did it give?
Answer: inactive

Question: With `Cc1ccc(C(=O)N2CCn3c(C)ccc3C2C)cc1` (centres undefined) as the molecule, how does the Potency read?
Answer: inconclusive: 31.4 µM [activator, single point]

Question: With `Cc1ccc(NC(=O)CNc2ccc(OC(C)C)cc2)c(C)c1` as the molecule, how does the Potency read?
Answer: inconclusive: 35.5 µM [inhibitor, single point]

Question: Which Potency does the source give for `COc1cc(OC)c(NC(=O)N2CCC(CN3CCOCC3)CC2)cc1Cl` here?
Answer: inconclusive: 50.1 µM [inhibitor, single point]

Question: How did the Potency turn out when `O=C(Nc1ccc(Oc2ccccc2)nc1)C1CCCCN1Cc1ccc(OCCO)cc1` (centres undefined) was run?
Answer: inconclusive: 28.2 µM [inhibitor, single point]

Question: For `C/C(O)=C\c1nc2ccccc2oc1=O`, which Potency is on record?
Answer: active: 10 µM

Question: How did the Potency turn out when `Cc1ccc(-n2nc(C)c3c2OC(N)=C(C#N)C3c2ccc(C)o2)cc1` (centres undefined) was run?
Answer: inconclusive: 50.1 µM [inhibitor, single point]

Question: For `O=c1cc(-c2ccc(Br)cc2)[nH][nH]1`, which Potency is on record?
Answer: inconclusive: 50.1 µM [inhibitor, single point]

Question: With `C=CCN1C(=O)C(CC(=O)O)SC1=Nc1cccc([N+](=O)[O-])c1` (centres undefined) as the molecule, how does the Potency read?
Answer: inconclusive: 39.5 µM [inhibitor, single point]

Question: How did the Potency turn out when `O=C(NCCN1CCOCC1)NC1(C(F)(F)F)Oc2ccc(Cl)cc2O1` (centres undefined) was run?
Answer: inconclusive: 10 µM [inhibitor, full curve]

Question: For `COC(=O)c1nc(NNC(=O)c2ccccc2)sc1-c1ccccc1`, which Potency is on record?
Answer: inconclusive: 9.92 µM [inhibitor, partial curve]

Question: `Cc1ccc2nc(-c3ccc(Cl)s3)c(Nc3ccc4c(c3)OCCO4)n2c1` was tested. Which Potency did it give?
Answer: inactive

Question: How did the Potency turn out when `Cc1ccc(NC2CC(=O)N(c3cccc([N+](=O)[O-])c3)C2=O)cc1` (centres undefined) was run?
Answer: inconclusive: 20 µM [inhibitor, partial curve]

Question: `Cc1c(O)c(=O)c2ccccc2n1C` was tested. Which Potency did it give?
Answer: inconclusive: 6.31 µM [inhibitor, full curve]

Question: `CCOc1ccc(NCc2cccn2-c2nnc(N3CCC(C(=O)NCCCN4CC(C)CC(C)C4)CC3)s2)cc1` (centres undefined) was tested. Which Potency did it give?
Answer: inconclusive: 12.6 µM [inhibitor, partial curve]

Question: With `Cc1ccn2c(Nc3ccc4c(c3)OCCO4)c(-c3ccccc3O)nc2c1` as the molecule, how does the Potency read?
Answer: inconclusive: 31.6 µM [inhibitor, single point]

Question: For `CCN(CC)CCCNC(=O)CCC(=O)NNc1nc2ccccc2c2nc(C)nn12`, which Potency is on record?
Answer: inconclusive: 35.5 µM [activator, single point]

Question: `COc1cc(C2C(C#N)=C(N)Oc3c2ccc2ccccc32)ccc1OCC(=O)Nc1cccc(C)c1` (centres undefined) was tested. Which Potency did it give?
Answer: inconclusive: 35.2 µM [inhibitor, single point]

Question: With `C/C(CC(=O)Nc1ccc2c(c1)OCO2)=N\NC(=O)c1ccccc1N` as the molecule, how does the Potency read?
Answer: inconclusive: 12.6 µM [inhibitor, partial curve, poor fit]

Question: With `CCCCN1C[C@H](O)[C@@H](O)[C@H](O)[C@H]1CO` as the molecule, how does the Potency read?
Answer: active: 2.51 µM

Question: With `O=C(O)c1ccc(Cl)cc1Nc1nc2cc(Cl)ccc2o1` as the molecule, how does the Potency read?
Answer: inconclusive: 50.1 µM [inhibitor, single point]

Question: How did the Potency turn out when `CNc1ccc(Br)cc(C(=O)/C=C/c2cccc(OC)c2OC)c1=O` was run?
Answer: inconclusive: 22.4 µM [inhibitor, partial curve]

Question: How did the Potency turn out when `Cc1ccc(NNC(=O)c2cc(C)on2)c(C)c1` was run?
Answer: inconclusive: 6.31 µM [inhibitor, full curve]

Question: How did the Potency turn out when `CN(C1CC(C)(C)N(O)C(C)(C)C1)S(=O)(=O)CC12CCC(CC1=O)C2(C)C` (centres undefined) was run?
Answer: inconclusive: 39.8 µM [inhibitor, single point]

Question: With `O=C(NN=C1CCCC1)c1n[nH]c2c1CCC2` as the molecule, how does the Potency read?
Answer: inconclusive: 28 µM [inhibitor, single point]

Question: Which Potency does the source give for `COc1cc(NC(=S)Nc2ncccc2C)cc(OC)c1OC` here?
Answer: inconclusive: 35.5 µM [inhibitor, partial curve]

Question: For `O=C(CSc1nccn1-c1ncc(C(F)(F)F)cc1Cl)c1ccc(Cl)cc1`, which Potency is on record?
Answer: inconclusive: 15.7 µM [inhibitor, partial curve]

Question: How did the Potency turn out when `O=C(NC(=S)N1CCCc2ccccc21)c1ccc([N+](=O)[O-])cc1` was run?
Answer: inconclusive: 14.1 µM [inhibitor, partial curve]

Question: How did the Potency turn out when `c1cn2c(NC3CCCC3)c(-c3ccc(N4CCOCC4)cc3)nc2cn1` was run?
Answer: inconclusive: 31.4 µM [inhibitor, single point]

Question: For `O=C(NNc1cccc(Cl)n1)c1ccc(Cl)cc1Cl`, which Potency is on record?
Answer: inconclusive: 25.1 µM [inhibitor, partial curve]

Question: Which Potency does the source give for `Cc1c(C2CC(=O)N(c3ccccc3)C2=O)[nH]n(-c2ccccc2)c1=O` (centres undefined) here?
Answer: inconclusive: 28.2 µM [inhibitor, partial curve]

Question: With `O=C(Cc1cnn(-c2ccccc2)c1)c1ccc(O)c(O)c1O` as the molecule, how does the Potency read?
Answer: inconclusive: 14.1 µM [inhibitor, partial curve]

Question: For `CCCn1cnc2cc(NCc3ccc(OC)cc3OC)ccc21`, which Potency is on record?
Answer: inconclusive: 35.5 µM [inhibitor, single point]

Question: For `Oc1ccc(NCc2ccc(OCc3ccccc3)cc2)cc1`, which Potency is on record?
Answer: inconclusive: 28.2 µM [activator, single point]

Question: How did the Potency turn out when `CCN(C(=O)c1cn(CC(C)C)c(=O)c2cc(OC)c(OC)cc12)c1cc(OC)ccc1OC` was run?
Answer: inactive

Question: For `Cc1cc(N=NC(=O)c2ccccc2)ccc1O`, which Potency is on record?
Answer: inconclusive: 50.1 µM [inhibitor, partial curve]

Question: With `CC(C)CNc1c(N)c(=O)oc2ccccc12` as the molecule, how does the Potency read?
Answer: inconclusive: 9.92 µM [inhibitor, partial curve]

Question: How did the Potency turn out when `O=C1CCC/C(=N\NC(=O)c2ccc(CSc3cccc4cccnc34)cc2)C1` was run?
Answer: inconclusive: 22.4 µM [inhibitor, partial curve]

Question: How did the Potency turn out when `COc1ccc(CNC(=O)c2sc3nc4n(c(=O)c3c2C)CCC4)cc1` was run?
Answer: inconclusive: 14.1 µM [inhibitor, partial curve]

Question: `COc1cc(-c2nc3ccccn3c2/N=C/c2ccc(F)cc2)ccc1O` was tested. Which Potency did it give?
Answer: inconclusive: 35.5 µM [inhibitor, partial curve]

Question: For `Cc1ccc(C2=NNC3(CCOC(C)(C)C3)S2)cc1` (centres undefined), which Potency is on record?
Answer: inconclusive: 31.4 µM [inhibitor, single point]

Question: For `CN(CC(=O)Nc1ccccc1N1CCOCC1)CC(=O)Nc1ccc(F)c(F)c1F`, which Potency is on record?
Answer: inconclusive: 14 µM [inhibitor, single point]

Question: How did the Potency turn out when `COc1ccc(CCNC(=O)CS(=O)(=O)Cc2nc(-c3cccc(Cl)c3)oc2C)cc1OC` was run?
Answer: inactive

Question: How did the Potency turn out when `COc1ccc(NC(=S)NNC(=O)c2ccc(S(=O)(=O)N3CCOCC3)cc2)cc1` was run?
Answer: inconclusive: 20 µM [inhibitor, partial curve]

Question: How did the Potency turn out when `CCOc1cc(N2CCOCC2)c(OCC)cc1NS(=O)(=O)c1cc(NC(C)=O)ccc1OC` was run?
Answer: inconclusive: 5.62 µM [inhibitor, single point]

Question: `O=C(CCS(=O)(=O)c1cc(Br)cc2c1N(C(=O)C1CC1)CC2)N1CCN(c2cccc(C(F)(F)F)c2)CC1` was tested. Which Potency did it give?
Answer: inconclusive: 14.1 µM [inhibitor, full curve, poor fit]

Question: With `O=C(CNc1cc(S(=O)(=O)N2CCOCC2)ccc1NCC1CCCO1)Nc1ccc(F)c(F)c1` (centres undefined) as the molecule, how does the Potency read?
Answer: inconclusive: 44.7 µM [inhibitor, single point]

Question: How did the Potency turn out when `Cc1ccc(N2C(=O)c3ccccc3C2C(=O)c2cc(C)ccc2O)cc1` (centres undefined) was run?
Answer: inconclusive: 15.8 µM [inhibitor, partial curve]

Question: `CN(C)C(=S)Nc1ccc(N2CCOCC2)cc1` was tested. Which Potency did it give?
Answer: inconclusive: 31.6 µM [inhibitor, single point]

Question: `COc1cccc(N2CCN(CC(=O)NC3=Nc4ccccc4N=C(C)C3c3ccccc3)CC2)c1` (centres undefined) was tested. Which Potency did it give?
Answer: inconclusive: 5.01 µM [inhibitor, full curve]

Question: With `CC(=O)n1cc(N(C(=O)CCl)c2ccc(Cl)cc2)c2ccccc21` as the molecule, how does the Potency read?
Answer: inactive

Question: Which activity change, negative = inhibition does the source give for `C=CCOC(=O)C1=C(C)NC(SCC(=O)Nc2ccccc2)=C(C#N)C1c1ccco1` (centres undefined) here?
Answer: inconclusive: 38.5% [activator]

Question: Which Potency does the source give for `N/N=C(\Cc1cscn1)c1ccc(O)cc1O` here?
Answer: inconclusive: 35.5 µM [inhibitor, single point]

Question: Which Potency does the source give for `COc1cc(Cl)c(C)cc1NC(=O)CSc1sc2c(O)cc(=O)[nH]c2c1C#N` here?
Answer: inconclusive: 6.31 µM [inhibitor, single point]

Question: How did the Potency turn out when `Cc1cc(C)n(-c2ccc(C(=O)Nc3ccc4c(c3)OCO4)cc2)n1` was run?
Answer: inconclusive: 3.95 µM [inhibitor, single point]

Question: How did the Potency turn out when `CCCOC(=O)C1=C(C)N(C)C(=O)NC1c1cc2c(cc1[N+](=O)[O-])OCO2` (centres undefined) was run?
Answer: inconclusive: 20 µM [inhibitor, partial curve]

Question: `COc1ccccc1N1CCN(c2cc(C)nc3nncn23)CC1` was tested. Which Potency did it give?
Answer: inconclusive: 11.2 µM [inhibitor, single point]

Question: With `N#Cc1cc([N+](=O)[O-])ccc1N1CCN(c2ccccc2O)CC1` as the molecule, how does the Potency read?
Answer: inconclusive: 3.14 µM [inhibitor, single point]

Question: Which Potency does the source give for `O=c1ccc2cc3ccoc3cc2o1` here?
Answer: inactive

Question: With `CCCCNc1cc(NC(C)=O)cc2cc(OC)c(OC)cc12` as the molecule, how does the Potency read?
Answer: inconclusive: 31.4 µM [inhibitor, single point]

Question: For `CCCCNC(=O)CSc1nc2ccc(N3CCOCC3)cc2c(=O)n1Cc1ccc(OC)cc1`, which Potency is on record?
Answer: inactive
